Reference: PubChem BioAssay AID1768 (National Center for Advancing Translational Sciences (NCATS), 2009)
Screen size: about 270,000 compounds; about 620 (0.23%) were called active. Inconclusive means that the source gave no clear call. Such entries were picked first, then a sample of the others. Calls follow the shape of the dose curve; as a rule, active = well fitted inhibition curve with a large enough effect in the polarisation, with a control signal flat (not every such curve was filed as active); inconclusive = small, poorly fitted or top-dose-only effect, or effect the other way, or a change in a side signal; inactive = no such curve, though single readings can be large or run the other way; the % refers to the polarisation. A potency beside an inconclusive call is a rough fit, not a confirmed value. A note “side channel” means that the fit belongs to a control or component signal, not to the main read-out.

Target: Menin (Homo sapiens) (UniProt O00255)
Assay: qHTS Assay for Inhibitors Targeting the Menin-MLL Interaction in MLL Related Leukemias: Competition With Texas Red Labeled MLL-derived Mutant Peptide; as to FP activity change, negative = inhibition: % of control where 0% means no effect
Conditions: fluorescence polarization; FP activity change, negative = inhibition: at 61.6 µM (top of the series)
Potency is read from the fitted curve at half-maximal effect; tags tell the direction and shape of the fitted curve or compound fluorescence and quenching.

Sequence of UniProt O00255 (O00255 whole entry, looked up): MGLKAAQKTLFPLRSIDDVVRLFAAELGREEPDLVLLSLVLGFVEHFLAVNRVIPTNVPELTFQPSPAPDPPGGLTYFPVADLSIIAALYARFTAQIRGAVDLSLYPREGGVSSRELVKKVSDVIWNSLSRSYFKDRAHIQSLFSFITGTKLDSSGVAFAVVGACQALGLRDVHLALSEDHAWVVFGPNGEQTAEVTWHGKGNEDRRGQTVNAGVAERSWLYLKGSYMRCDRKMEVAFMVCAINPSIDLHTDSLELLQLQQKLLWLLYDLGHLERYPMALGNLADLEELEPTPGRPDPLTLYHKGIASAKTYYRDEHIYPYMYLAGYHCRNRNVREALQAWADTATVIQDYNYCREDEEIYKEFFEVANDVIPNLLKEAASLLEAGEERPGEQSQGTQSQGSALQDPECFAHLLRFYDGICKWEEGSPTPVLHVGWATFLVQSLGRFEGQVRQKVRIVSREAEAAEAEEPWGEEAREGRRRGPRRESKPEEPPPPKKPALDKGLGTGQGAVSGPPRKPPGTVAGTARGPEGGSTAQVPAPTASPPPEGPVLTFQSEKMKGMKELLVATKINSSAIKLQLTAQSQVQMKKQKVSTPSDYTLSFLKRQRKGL

FP activity change, negative = inhibition, inactive:
COc1ccc(C(=O)N/N=C/c2cc3ccccc3[nH]c2=O)cc1 -29%
CCC[C@@H]1C[C@@]1(CCC)C(NC(=O)c1ccccc1)c1cccc(Cl)c1 (some centres undefined) -3.8%
COc1ccc(-n2c(COc3ccc(C)cc3)nnc2SCc2ccc(C#N)cc2)cc1 -15.7%
CC1O[C@@H](O[C@@H]2C(O)C[C@H](O[C@@H]3C(O)C[C@@H](OC4CC[C@@]5(C)C6CC(O)[C@@]7(C)C(C8=CC(=O)OC8)CC[C@@]7(O)C6CC[C@@H]5C4)OC3C)OC2C)CC(O)[C@H]1O (some centres undefined) 7.7%
Cc1ccccc1OCc1nnc(SCC(=O)Nc2ccc3c(c2)oc2ccccc23)n1C 15.5%
CCOC(=O)/C(C(=O)Nc1ccccc1Cl)=C1/NC(C)(C)Cc2ccccc21 -3.15%
O=c1c2ccccc2nc2n1CCC2 -8.08%
O=c1cc(/C=C/c2ccccc2)oc2c1ccc1ccccc12 14.9%
Cc1cccc(CN2CC34C=CC(CC3S2(=O)=O)O4)c1 (centres undefined) 14.1%
O=Cc1ccc(OC2C=CC(c3ccccc3)OC2CO)cc1 (centres undefined) 11.4% [at 11.7 µM]

Potency, inconclusive:
C=CCN1C(=O)/C(=C2\SC(N3CCOCC3)=NC2=O)c2cc(Br)ccc21 1.41 µM [inhibitor, full curve, poor fit]
O=C(CN1CCN(c2ccc(O)cc2)CC1)Nc1ccc(SC(F)F)cc1 22.4 µM [quencher, side channel, single point]
COc1cccc(Nc2ncc3nc(-c4cccs4)c(=O)n(CCC#N)c3n2)c1 3.55 µM [quencher, side channel, full curve]
CCOc1cccc2sc(NC(=O)c3ccc(Br)s3)nc12 11.2 µM [quencher, side channel, partial curve]
N#CCC(=O)N/N=C/c1ccc(SCC(=O)Nc2ccccc2)o1 25.1 µM [quencher, side channel, single point]
Cc1cccc(-n2nc(C)c3c(C(=O)O)cc(-c4cccs4)nc32)c1 28.2 µM [quencher, side channel, single point]
Cc1ccc2c(Cl)cc(Cl)c(OCC(=O)N3CCCC3)c2n1 14.1 µM [fluorescent, side channel, partial curve]
COc1ccc(-n2cc3ccc([N+](=O)[O-])cc3n2)cc1 20 µM [quencher, partial curve]
COc1cc(C2N(C)C(=O)c3ccccc3N2C)ccc1O (centres undefined) 39.8 µM [inhibitor, partial curve, poor fit]
CC(=O)c1c(C)nc(-c2ccc(Cl)cc2)nc1N=CN(C)C 17.8 µM [quencher, side channel, partial curve]
COc1ccc2cc(C(=O)C3CCCN(C(=O)c4cc(=O)n(C)c(=O)n4C)C3)ccc2c1 (centres undefined) 28.2 µM [fluorescent, side channel, single point]
COc1ccc(/C=C2\SC(=S)N(C(Cc3ccccc3)C(=O)O)C2=O)cc1 (centres undefined) 39.8 µM [quencher, side channel, single point]
O=C(c1cccnc1)C1CCCN(Cc2nc(Cc3ccccc3)no2)C1 (centres undefined) 15.8 µM [fluorescent, side channel, partial curve]
O=C(CCc1nnc(-c2ccc3c(c2)OCO3)o1)NC(c1cccnc1)C(F)(F)F (centres undefined) 39.8 µM [fluorescent, side channel, single point]
CSc1nsc(/C=C/Nc2ccc(F)cc2F)c1C#N 20 µM [quencher, side channel, partial curve]
COc1cccc(-n2nnc3c(=O)n(CC(=O)Nc4ccc(C)cc4)cnc32)c1 10 µM [fluorescent, side channel, partial curve]
CCC(Sc1nnnn1-c1ccccc1)C(=O)Nc1nc2ccccc2s1 (centres undefined) 20 µM [inhibitor, single point]
CC(C)n1c2ccccc2c2cc([N+](=O)[O-])ccc21 20 µM [quencher, side channel, partial curve, poor fit]
COCCCn1c(=S)[nH]c2sc3c(c2c1=O)CCCS3 17.8 µM [quencher, side channel, partial curve]
O=C/C=C/c1c(-c2ccccc2)cc2oc3ccccc3cc1-2 39.8 µM [quencher, side channel, single point]
O=C(Nc1ccc(F)cc1)c1cc(-c2ccccn2)nc2c(Cl)cccc12 11.2 µM [inhibitor, partial curve]
CC(C)C(=O)Nc1c(-c2ccccc2F)c(=O)c2ccccc2n1C 3.55 µM [inhibitor, single point]
CCOc1ccccc1NC(=O)c1ccc2[nH]c(C)c(C)c2c1 25.1 µM [quencher, side channel, partial curve]
C=CCn1c(SCC(=O)c2ccc(CNC(C)=O)o2)nc2scc(C3CC3)c2c1=O 39.8 µM [quencher, side channel, single point]
C(=N\Nc1nn2cnnc2c2ccccc12)/c1ccco1 39.8 µM [inhibitor, single point]
Oc1ccccc1NCC(O)Cn1ccc2ccccc21 (centres undefined) 25.1 µM [quencher, side channel, partial curve]
COc1ccccc1NS(=O)(=O)c1cc(NC(=O)c2sccc2C)ccc1N1CCCC1 28.2 µM [quencher, side channel, partial curve]
O=C(COc1ccc(/C=N/NS(=O)(=O)c2ccccc2)cc1)Nc1ccc(F)cc1 15.8 µM [quencher, side channel, partial curve]
CC1CCN(S(=O)(=O)c2ccc(C(=O)Nc3sccc3C(N)=O)cc2)CC1 2.82 µM [quencher, side channel, partial curve]
CCC(c1nnnn1C(C)(C)C)N1CCN(Cc2ccccc2OC)CC1 (centres undefined) 11.2 µM [inhibitor, partial curve]
CCN(c1ccc(C)cc1)S(=O)(=O)c1nnc(NC(=O)c2ccco2)s1 15.8 µM [quencher, side channel, partial curve]
CC(C)(C)CNC(CO)C12CC3CC(CC(C3)C1)C2 (centres undefined) 39.8 µM [inhibitor, single point]
O=C(NNC(=S)NC(=O)c1ccc(Br)cc1)c1cccc([N+](=O)[O-])c1 25.1 µM [quencher, side channel, partial curve]
CCn1ccnc1CN1CCCC(C(=O)c2ccc3c4c(cccc24)CC3)C1 (centres undefined) 2.51 µM [fluorescent, side channel, full curve]
CC(C)(C)c1ccccc1OCC(O)CN1CCN(c2ccccn2)CC1 (centres undefined) 12.6 µM [fluorescent, side channel, partial curve]
O=C(NCCCN1CCCC1=O)Nc1ccc(F)c(Cl)c1 39.8 µM [inhibitor, single point]
CCN(CC)CCC(=O)NC(C)(C)Cc1ccc(O)cc1 28.2 µM [inhibitor, partial curve]
COC(=O)CN1C(=S)N(c2ccc(F)cc2)C(=O)C1CC(=O)Nc1ccccc1 (centres undefined) 14.1 µM [quencher, partial curve]
CCOc1ccc(C(C)C)cc1S(=O)(=O)N1CCN(C(=O)c2ccco2)CC1 10 µM [inhibitor, partial curve]
C/C(=N\Nc1cc(C)nc(-c2ccccc2O)n1)c1ccccc1 5.01 µM [quencher, side channel, partial curve]
COc1ccc(CNC(=O)CS(=O)(=O)Cc2nc(-c3cccc(OC)c3)oc2C)cc1 35.5 µM [fluorescent, side channel, single point]
CCCN1C(=O)/C(=C/c2c(NCCCOC(C)C)nc3c(C)cccn3c2=O)SC1=S 5.62 µM [fluorescent, side channel, single point]
Cc1cc(F)ccc1NCc1cc2c(cc1[N+](=O)[O-])OCO2 28.2 µM [quencher, side channel, single point]
CCOC(=O)C1(Cc2ccccc2)CCN(Cc2cnn(-c3ccccc3)c2)CC1 14.1 µM [fluorescent, side channel, partial curve]
CC(C)N1C(=O)S/C(=C\c2ccc(-c3ccc(Cl)c(C(=O)O)c3)o2)C1=O 31.6 µM [quencher, side channel, single point]
CC(=O)N1CCC2(CCN(Cc3ccc(C#N)cc3)CC2)CC1 7.08 µM [inhibitor, single point]
CC(=O)N1CCCc2cc(S(=O)(=O)N3CCN(c4ccccn4)CC3)ccc21 44.7 µM [inhibitor, partial curve, poor fit]
CSc1ccccc1C(=O)NCc1ccc2c(c1)OCO2 25.1 µM [inhibitor, single point]
COc1cccc(NC(=O)CSc2nc3n[nH]c(C)c3c(=N)n2-c2cccc(OC)c2)c1 15.8 µM [quencher, side channel, partial curve]
